# Laboratory results: the supplement of paper PMC3334620
# The full ranking holds about 33,000 sequences; the median of “E-score (-0.5 to 0.5)” is about -0.017, and the highest 2% start at about 0.3. The list shows a part of the results.
# Molecular target: T1, Sut1 (UniProt P53032)
# T1 sequence: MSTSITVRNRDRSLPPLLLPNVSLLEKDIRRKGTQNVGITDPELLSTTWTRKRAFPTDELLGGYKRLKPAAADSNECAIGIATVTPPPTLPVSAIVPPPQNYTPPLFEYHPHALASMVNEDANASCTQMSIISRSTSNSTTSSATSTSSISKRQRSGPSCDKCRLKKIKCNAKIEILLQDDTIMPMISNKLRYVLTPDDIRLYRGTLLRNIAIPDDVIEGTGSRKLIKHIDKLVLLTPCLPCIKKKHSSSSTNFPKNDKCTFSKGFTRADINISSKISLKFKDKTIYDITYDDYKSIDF
# Assay: PBM E-score (8-mer binding enrichment) (E-score (-0.5 to 0.5)); higher = stronger / more preferred TF binding; most listed sequences are background and not binding sites
# Settings: protein concentration: 200 nM; construct: GST-full length
# Summary of the method: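 Detection of bound protein used fluorescent anti-GST, with scans normalised by masliner. The proteins were GST-tagged yeast transcription factors applied at about 100-200 nM to universal all-10-mer Agilent arrays made double-stranded by primer extension. Each ungapped eight-base word, pooled with its reverse complement, was scored with an E-score from the Universal PBM Analysis Suite.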
row,Sequence,PBM E-score
1,ATAACGAC,0.213
2,CCAACGAC,-0.14
3,ACCAGACC,-0.167
4,GATTAATA,0.154
5,TAAAACAA,0.207
6,GGGGAATA,-0.0656
7,AGAATCCA,0.00183
8,ACCTCCGG,0.322
9,GATTAGTA,0.0528
10,CGACTCGC,-0.174
11,AAGATATT,0.226
12,GTATGTTA,0.196
13,GAGAATTA,0.157
14,ACGGTGTC,-0.131
15,CTCTCCAG,-0.321
16,GACCGCTC,-0.0564
17,AGCTCCCC,-0.265
18,ACATATGT,0.0268
19,ACAGCGGC,-0.307
20,CGATCTGA,0.047
21,CCCTACAG,-0.249
22,GATTCAGA,0.115
23,ACGCTTCA,-0.199
24,ATCTTCAC,-0.0358
25,CCGGCTTA,0.0147

row,Sequence,PBM E-score
1,AAACCCGT,-0.24
2,AGTAGGTG,-0.0911
3,TCGGGACA,-0.117
4,CATCTATC,-0.0822
5,GACCCTGA,-0.239
6,AAACCGCA,-0.221
7,CCCGGTTC,-0.158
8,CACGTTCA,-0.0298
9,GCGCGATA,-0.0175
10,AGGACAAA,0.12
11,TGCAGAAA,0.0257
12,GTCTACGA,-0.126
13,AGTTGTCC,0.117
14,ATTGAGTC,0.0829
15,GTCTAACA,-0.0519
16,CGGAACGA,0.226
17,AAATTGCA,-0.0262
18,GCGTGGGA,-0.13
19,CCAAACAC,-0.00595
20,AATACCAG,-0.0474
21,AACCGCTG,-0.175
22,CACCCCCA,-0.251
23,CGAAAGGA,0.0906
24,AAAGCACG,-0.152
25,GCATTCTA,-0.00067

row,Sequence,PBM E-score
1,AAAGCGAG,0.068
2,AAGACCTG,-0.27
3,TGCGGGAA,0.03
4,AGTTATCC,0.09
5,CTAGCTGA,-0.122
6,AAGAGAAA,0.0578
7,AGTAAGAA,0.132
8,GAAATTGA,0.225
9,GCTCAACC,-0.096
10,ACGTGTCC,-0.179
11,ATGGCGAG,-0.165
12,CAGCCGTA,-0.153
13,ACGTACGA,-0.0612
14,AGTATGGA,0.11
15,CACGATGA,-0.0806
16,AGCCCGTG,-0.224
17,GTTAAAGA,0.0511
18,AATCAGGC,0.0629
19,CAGTAGCA,-0.115
20,GATTGAGC,0.0614
21,ACCCTCCT,-0.215
22,GGTGCAAA,0.0509
23,ACCAGACG,-0.183
24,ATACCAGA,-0.00832
25,GGGCCGGA,0.206

row,Sequence,PBM E-score
1,ACGAGGCC,-0.169
2,GCTTTCAC,-0.0493
3,ACTTCCAC,-0.0347
4,ATGGTGTG,0.0974
5,AACGGGGG,-0.0848
6,CCGAAGCG,-0.0599
7,AAGGGAAA,-0.0893
8,CCTGTATC,0.0452
9,ATCCAACA,0.158
10,GCCGAGTA,-0.198
11,AGGTACCA,-0.121
12,AGATCAAC,-0.02
13,ATGTTGCG,-0.00964
14,CATACTAG,0.209
15,ATCTAAGC,-0.182
16,ATCTACCC,-0.0367
17,CCATTACG,-0.165
18,GCCCTCCA,-0.204
19,ACCGGTGA,-0.0486
20,CACCCCCG,-0.191
21,CCCACACG,-0.0275
22,AGGTTTTG,0.158
23,ACAACTGA,0.0687
24,ACAACTCT,0.0085
25,ACTGTGCG,-0.0488

row,Sequence,PBM E-score
1,ACCTCCGA,0.177
2,ATTGTGTG,0.0465
3,GGATGGCA,0.0887
4,TACGTATA,0.0853
5,AAGGGACA,-0.167
6,GGCTTACA,0.0643
7,AGAGTATC,0.162
8,GGGGCGAA,-0.148
9,GAAGCTAC,-0.136
10,AAATACCA,0.123
11,TGTCCTAA,-0.0608
12,AAAGCAAT,0.269
13,AACACAAC,0.142
14,CTTTGTAA,0.168
15,AAAGAACG,0.15
16,GAGCCGGA,0.254
17,AGCAAGGG,-0.21
18,AACGTACC,-0.0999
19,ACCATTCC,0.0388
20,ACGGACAG,-0.0929
21,CGTAGGGA,-0.245
22,AACTCAGC,-0.125
23,CAATGAAA,0.0521
24,CGTTGGAA,0.0116
25,AGTAACCG,0.175

row,Sequence,PBM E-score
1,CCTCCCCA,-0.221
2,AACATTGC,-0.101
3,AGTTTTCA,0.223
4,AAGCTTCT,0.0619
5,AGGATGGG,-0.268
6,AAGCAAAC,0.131
7,GGGATACC,-0.333
8,ATAGTGTA,0.184
9,CACAAGAA,0.19
10,ACGAGCTC,-0.0785
11,GATACCAC,0.00381
12,TGTCTGAA,0.0592
13,ACGCGAGT,-0.0896
14,AGGTCTAG,-0.14
15,AGATATAG,0.18
16,GGTCGACA,-0.0152
17,CATAGCAG,-0.277
18,CTCACGGA,0.095
19,ACACTGCC,-0.00589
20,ATTGGGAC,-0.0653
21,ACAGAGGG,-0.303
22,CCCCAGGC,-0.303
23,ATCAACCG,0.0875
24,ATTGTATC,0.186
25,ATAATTAT,0.39

row,Sequence,PBM E-score
1,ATAAATGC,0.125
2,CTTGTGCC,-0.213
3,ACCTTTCT,0.0612
4,CCTCTACC,-0.0759
5,GTGAATAA,0.185
6,AGACACAA,0.108
7,CGTAAAAA,0.201
8,AGGACCCT,-0.143
9,ATGCTTTG,0.105
10,TATGCATA,0.165
11,CATTTAGA,0.128
12,ACTTTCCA,0.0631
13,TGGTTAAA,0.159
14,CTCAGAGA,-0.119
15,GGGATTAC,-0.0612
16,ATTCGGCC,-0.0211
17,GTCATCCA,-0.00237
18,AAGGAACA,-0.0271
19,ATATCGTG,-0.016
20,AATGGCCG,-0.178
21,GAAGTGCC,-0.0133
22,CGCACATC,-0.156
